The whole screen tested about 310,000 compounds, of which about 14,000 (4.5%) showed an effect of 50% or more. The effect is printed as a negative number. The list shows a part of the results.
molecular target: human ether-à-go-go-related gene (hERG) potassium channel (human, UniProt Q12809); test: primary screen, population patch clamp on CHO cells stably expressing hERG
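Note: peak tail current of the secondary pulse compared with the same well before compound.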

Sequence of human ether-à-go-go-related gene (hERG) potassium channel (Q12809 whole entry, looked up): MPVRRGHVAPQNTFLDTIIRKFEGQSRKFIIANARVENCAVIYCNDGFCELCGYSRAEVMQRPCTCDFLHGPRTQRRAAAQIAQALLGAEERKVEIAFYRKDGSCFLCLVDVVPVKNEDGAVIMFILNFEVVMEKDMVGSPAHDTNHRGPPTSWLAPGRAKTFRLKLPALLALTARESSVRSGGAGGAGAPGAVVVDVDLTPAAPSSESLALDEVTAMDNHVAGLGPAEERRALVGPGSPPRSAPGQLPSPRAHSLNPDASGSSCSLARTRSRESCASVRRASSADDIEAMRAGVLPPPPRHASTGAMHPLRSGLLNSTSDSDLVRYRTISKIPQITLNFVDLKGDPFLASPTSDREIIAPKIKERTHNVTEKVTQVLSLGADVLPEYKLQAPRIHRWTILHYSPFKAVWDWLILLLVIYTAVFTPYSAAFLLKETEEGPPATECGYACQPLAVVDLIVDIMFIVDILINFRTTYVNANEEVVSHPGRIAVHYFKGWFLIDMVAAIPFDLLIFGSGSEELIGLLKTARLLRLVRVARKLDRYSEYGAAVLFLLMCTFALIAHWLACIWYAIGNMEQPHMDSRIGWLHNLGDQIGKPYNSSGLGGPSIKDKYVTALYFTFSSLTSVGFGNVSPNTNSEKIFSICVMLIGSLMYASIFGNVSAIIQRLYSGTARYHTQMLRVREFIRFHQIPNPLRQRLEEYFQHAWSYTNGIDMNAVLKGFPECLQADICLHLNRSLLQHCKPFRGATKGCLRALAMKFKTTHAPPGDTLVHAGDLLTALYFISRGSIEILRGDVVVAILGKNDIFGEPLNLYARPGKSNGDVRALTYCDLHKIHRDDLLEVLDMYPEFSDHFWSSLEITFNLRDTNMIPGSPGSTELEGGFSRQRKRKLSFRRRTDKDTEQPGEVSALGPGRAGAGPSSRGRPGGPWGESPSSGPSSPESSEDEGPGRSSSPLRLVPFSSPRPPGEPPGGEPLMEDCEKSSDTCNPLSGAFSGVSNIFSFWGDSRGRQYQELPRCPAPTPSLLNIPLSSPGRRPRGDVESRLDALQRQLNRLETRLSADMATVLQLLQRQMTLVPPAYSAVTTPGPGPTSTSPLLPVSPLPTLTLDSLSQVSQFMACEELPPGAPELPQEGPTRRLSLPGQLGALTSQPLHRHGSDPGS

SMILES | hERG current change (%, negative = inhibition) at 10uM
O=C(c1ccco1)N1CCN(c2ccc([N+](=O)[O-])cn2)CC1 | -57.7%
CN(CC1CCCN(CCc2ccc(Cl)cc2)C1)C(=O)c1ccco1 (stereo not drawn) | -25.5%
Fc1nc(N2CCCC2)c(F)c(Oc2ccccc2Oc2c(F)c(F)nc(N3CCCC3)c2F)c1F | 1.52%
Fc1ccc(-c2cc(C(F)(F)F)nc(NCc3cccs3)n2)cc1 | 14.4%
COc1ccc(/C=C/C(=O)N(C)c2ccccc2C(=O)O)cc1 | -4.18%
Cc1ccc(NC(=O)NCCN2C(=O)C3C4C=CC(C4)C3C2=O)cc1 (stereo not drawn) | -5.14%
COc1ccc(CN(C)C(=O)CCN=C2NS(=O)(=O)c3ccccc32)c(OC)c1 | -13.2%
O=C(NCCN1CCN(c2ccccc2)CC1)C1(S(=O)(=O)c2ccc(Cl)cc2)CC1 | -50.2%
CCOC(=O)c1c(NS(=O)(=O)Cc2ccccc2)sc2c1CCCC2 | 12.9%
COc1ccc(OC)c2[nH]c(=O)c(CCNC(=O)c3ccc(S(=O)(=O)N4CCCCC4)cc3)cc12 | -1.24%
CCS(=O)(=O)Nc1cccc(C2=NN(S(=O)(=O)CC)C(c3ccccc3)C2)c1 (stereo not drawn) | 1.69%
COc1cc(NC(=O)CSc2nnc(C)s2)cc(OC)c1OC | -0.59%
O=S1(=O)CCO[C@H]2Cc3ccccc3[C@H]2N1Cc1cccc(Cl)c1 | -28.4%
Cc1ccc(OCC(=O)N2CCN(C(=O)c3ccc([N+](=O)[O-])cc3)CC2)cc1 | -83.4%
Cc1ccc(SCc2cc(=O)[nH]c(N3CCN(C)CC3)n2)cc1 | -14.1%
Cc1cccc(OCCOc2ccccc2C=C(C#N)C#N)c1 | 7.63%
CSc1ncccc1-c1nc2ccccc2[nH]1 | -2.53%
CC(=O)c1ccc(S(=O)(=O)N(C)CC(=O)NCc2ccco2)cc1 | -5.97%
O=C(NC1CCCCNC1=O)c1ccccc1 (stereo not drawn) | 11.5%
COc1ccccc1-c1nc2ccccc2c(=O)n1O | 17.1%
Cc1cc(C)c(C#N)c(SCC(=O)Nc2ccc3c(c2)OCO3)n1 | 14.4%
COc1cccc(NC(=O)c2sc3nc4n(c(=O)c3c2C)CCC4)c1 | -16.3%

SMILES | hERG current change (%, negative = inhibition) at 10uM
CS(=O)(=O)N(CC(=O)NCc1ccc2c(c1)OCO2)Cc1ccccc1 | -10.9%
O=C(CCC(=O)N1CCc2ccccc21)Nc1ccccc1 | -7.99%
CSCC[C@H](NC(=O)[C@@H]1CSC2c3ccccc3C(=O)N21)C(=O)N1CCC[C@H]1CO (stereo partly drawn) | 1.52%
N#Cc1c(-c2cccc([N+](=O)[O-])c2)nc2n(c1=O)CCS2 | 5.37%
CCCCCn1ccc(=N)cc1.I | 11.7%
C=CCn1c(=N)n(CC(=O)c2ccc(Br)cc2)c2ccccc21 | -43.5%
C#CC[N+](CC)(CC)CC#Cc1ccccc1.[Br-] | 9.22%
CC(=O)c1cccc(NC(=S)NC(=O)c2cccc(C)c2)c1 | 17.9%
Cc1cc(C)cc(C(=O)NCC(=O)OCC(=O)NCC(F)(F)F)c1 | 24.6%
CCOc1ccc(C(CC(=O)O)NC(=O)C(c2ccccc2)c2ccccc2)cc1OC (stereo not drawn) | 16.2%
CCCc1cc(=O)[nH]c(SCc2csc(-c3ccccc3)n2)n1 | -7.55%
COc1ccc(NC(=O)CN(C)C(=O)c2cccc(-n3cccc3)c2)cc1 | -29.6%
N#Cc1nc(-c2ccccc2)oc1NCC1CCCO1 (stereo not drawn) | 7.43%
CCOC(=O)C1=C(N)N2C(=O)CSC2=C(C(=O)OC)C1 | 4.5%
CN1CCN(c2ccc(S(=O)(=O)N3CCCCC3)cc2NC(=O)COc2cccc(Cl)c2)CC1 | -49.1%
Cc1ccc(/C=C(\C#N)C(=O)NC(C)c2ccccc2)o1 (stereo not drawn) | 13.6%
COc1cc(Cl)ccc1OCc1cc(C(=O)NC(C)Cc2cccnc2)no1 (stereo not drawn) | -30.7%
COc1ccc(C)cc1NC(=O)CCNC(=O)c1ccco1 | 8.47%
Cc1ccc(N2CN=c3s/c(=C\c4ccccn4)c(=O)n3C2)cc1 | -0.242%
COc1ccc(CN(C(=O)CO/N=C/c2ccccc2)c2ccccc2C(=O)O)cc1 | 4.03%
COC(=O)[C@H](Cc1ccccc1)NC(=O)O[C@@H]1C(=O)c2cc(OC)ccc2O[C@H]1c1ccc(OC)c(Br)c1 | 17.9%
O=C1C(Cc2cccc([N+](=O)[O-])c2)S/C(=N/N=C/c2ccco2)N1c1ccccc1 (stereo not drawn) | 2.64%

SMILES | hERG current change (%, negative = inhibition) at 10uM
COc1ccc(NC(=O)C2CCC(=O)N2S(=O)(=O)c2ccc(C)cc2)c(OC)c1 (stereo not drawn) | -11%
O=c1c2c(-c3ccc([N+](=O)[O-])cc3)csc2nc2n1CCCCC2 | -34.6%
C(/C=C/c1ccco1)=N/N1CCN(c2ccccc2)CC1 | 5.24%
Cc1nc2sc(C(c3cccc(F)c3)N3CCCCC3)c(O)n2n1 (stereo not drawn) | 4.79%
Nc1c(C(=O)[O-])sc2nc3c(cc12)CCCC3 | 9.96%
COc1ccccc1NC(=O)C/C(C)=N/NC(=O)C12CC3CC(CC(C3)C1)C2 | 7.98%
Cc1cccc(C)c1OCCSc1n[nH]c(N)n1 | 8.88%
C=CCN1C(=O)/C(=c2\sc3nc(=O)c(Cc4ccccc4Cl)nn3c2=O)c2ccccc21 | 16.7%
O=C(N/C(=C\c1ccccc1)C(=O)N1CCCCC1)c1ccco1 | 20%
COc1ccc(/C=C/C(=O)OCC(=O)N2CCCCCC2)c(OC)c1 | -16.3%
O=C(NCc1ccccc1)c1ccc2c(=O)n(CCCN3CCCC3=O)c(=S)[nH]c2c1 | -2.52%
OC(COc1ccc(Br)cc1)CN1CCN(c2ccccc2)CC1 (stereo not drawn) | -21.2%
CC(Oc1ccc(Br)cc1)C(=O)N1CCN(c2ccccn2)CC1 (stereo not drawn) | -29.4%
COc1ccc(CCNCC(=O)Nc2ccc(OC(F)F)cc2)cc1 | -75.8%
O=C(O)C1=C[C@H](c2cccs2)C[C@H](OCc2ccc(CO)cc2)O1 | -0.491%
CCOC(=O)CNC(=O)N1CCC(CCOc2ccccc2)(C(=O)OCC)CC1 | 1.83%
COc1ccc(C(C)=O)cc1COC(=O)c1cnc(Cl)c(Cl)c1 | 3.03%
COc1ccc(C2/C=C\CN(Cc3ccncc3)CC(=O)N2Cc2ccc(F)cc2)cc1 (stereo not drawn) | -45.4%
O=C(Nc1ccc(S(=O)(=O)N2CCCCC2)cc1)c1ccco1 | -10.7%
Cn1c(SCC(=O)Nc2nc3c(s2)CCCC3)nnc1-c1ccccc1 | -16.4%
CCN1CCN(c2nc(N)c([N+](=O)[O-])c(Nc3cccc(C)c3)n2)CC1 | -45%
Cc1ccc(C(=O)N2CCC(C)CC2)cc1NC1=NC2CS(=O)(=O)CC2S1 (stereo not drawn) | 0.213%

SMILES | hERG current change (%, negative = inhibition) at 10uM
COc1ccc2cc([C@H](C)C(=O)[O-])ccc2c1.[Na+] | 10.3%
O=[N+]([O-])c1ccc(OCC(O)CN(C2CCCCC2)C2CCCCC2)cc1 (stereo not drawn) | -75.8%
O=[N+]([O-])c1ccc(CSc2ncnc3ccccc23)cc1 | -31.8%
CCOC(=O)c1nn(-c2ccc(C)cc2)c(C)c1C(C)=O | 4.57%
Cc1ccc(C(CC(=O)NCc2ccco2)c2ccc(OC(C)C)cc2)cc1 (stereo not drawn) | -23.6%
Cc1ccc(CN2CC(C(=O)NC(c3nc4ccccc4[nH]3)C(C)C)CC2=O)cc1 (stereo not drawn) | -6.03%
OCC1OC(Oc2cccc3ccccc23)C(O)C(O)C1O (stereo not drawn) | 12.3%
CCCn1c(=O)c2[nH]c(C3CCCC3)nc2n(CCC)c1=O | 9.9%
COC(=O)CSc1nc(SCc2ccccc2Cl)nc2c1CCCC2 | 2.88%
O=C(Nc1ccccn1)Nc1ccccc1[N+](=O)[O-] | 11.6%
O=C(Nc1ccc(F)c([N+](=O)[O-])c1)C1CCCO1 (stereo not drawn) | 10.5%
CCOC(=O)C1(CCc2ccccc2)CCN(Cc2ccc3c(c2)OCCO3)CC1 | -84.4%
COc1ccc(-c2csc(N3CCN(C(=O)c4ccco4)CC3)n2)cc1 | -8.87%
Cc1cccc(NC(=S)NNC(=O)c2ccc3c(c2)OCO3)c1 | 15.3%
Cc1c(Cl)c([N+](=O)[O-])nn1Cc1ccc(C(=O)N/N=C\c2cc(Cl)ccc2O)o1 | 14.9%
O=C(CCCCCCCC(=O)NCC1CCCO1)NCC1CCCO1 (stereo not drawn) | 0.822%
CN(C)c1ccc(S(=O)(=O)N(C)C)cc1[N+](=O)[O-] | 19.3%
CC(=O)Nc1ccc(N=Cc2ccc[nH]2)cc1 | -4.47%
Cc1ccc(-c2cc(C(=O)Nc3ccccc3C(N)=O)c3ccccc3n2)o1 | -8.43%
CCOc1ccc(OCc2ccc(C(=O)N3N=C(C(F)F)CC3(O)C(F)F)o2)cc1 (stereo not drawn) | 16.5%
C=CCC1=C/C(=C\c2c(N)n3nc(CC(=O)N4CCOCC4)sc3nc2=O)C=C(OC)C1=O | 6.1%

Source: PMC4336329 (PLoS ONE, 2015)
